This passage reports TGI results from PubChem BioAssay (NCI).

SMILES strings stand for the structures.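 Where inhibition never reached the appropriate level, the endpoint shown equals the highest concentration tested. Otherwise, values were interpolated linearly from a five-concentration, 48-hour dose response in 96-well plates. The concentration for full growth arrest is given as TGI.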

For this experiment, the system named is NCI-H322M lung. Description: NCI-60 cell line screen, 48 h.
Molecule `c1ccc2cc(CN3CCC(C4CCN(Cc5ccc6ccccc6c5)CC4)CC3)ccc2c1` displayed a TGI of 19.4 µM. The value for `C/C=N\n1c(C)n[nH]c1=O` was more than 100 µM; that for `O=C(/C(=C\c1ccccc1)CN1CCOCC1)c1ccc(Br)cc1` was 21.4 µM. The value for `COc1cc(C2c3[nH]c4ccccc4c3[C@@H](Nc3ccc(F)cc3)[C@H]3COC(=O)N23)cc(OC)c1O` (stereo partly drawn) was more than 10 µM; that for `CCC(=C(C#N)C#N)c1cc(OC)c(OC)c(OC)c1` was more than 100 µM.

As for `O=C(O)c1ccccc1CC1Cc2ccccc2C1`, the TGI is more than 100 µM. The value for `CCN(CC)CCN1C=CC(C)C(C(=O)O)C1C(N)=O` (stereo not drawn) was more than 100 µM; that for `O=c1[nH]c(=S)[nH]c2c1C(c1ccc(Cl)cc1)c1c([nH]c(=S)[nH]c1=O)O2` was more than 100 µM.
